The other results are listed elsewhere or left out.
Target: no compound (DMSO)
Test: log2 fold change of degron read counts, EGFP-low vs EGFP+ sorted cells; higher = lower degron-EGFP level without compound (poor expression or instability)
Settings: compound: DMSO control; 18 h
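Further: jurkat cells carrying a lentiviral library of mutant zinc finger degrons fused to EGFP plus mCherry, mCherry+ cells FACS sorted, degron abundance counted by next-generation sequencing.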

Sequence | log2 fold change of degron read counts
FICEICGHGFTQKGNLLRHIKL | -1.87
FYCPICGARFTQKGNLLRHIKL | -1.24
FNCNQCGRHFTQKGNLLRHIKL | 0.673
FSCEVCGANFTQKGNLLRHIKL | -2.47
LVCPICGFNCTQKGNLLRHIKL | 0.883
LQCEICGFACTQKGNLLRHIKL | -0.391
FDCNQCGAWFTQKGNLLRHIKL | 1.37
FTCNQCGAIFTQKGNLLRHIKL | -0.546
FFCPVCGAKFTQKGNLLRHIKL | -0.681
FECPQCGAVFTQKGNLLRHIKL | -1.54
FWCPQCGAQFTQKGNLLRHIKL | 0.152
FYCPICGRDFTQKGNLLRHIKL | -0.414
FYCNQCGANFTQKGNLLRHIKL | 0.0955
FACEICGHAFTQKGNLLRHIKL | -2.48
FTCEICGRQFTQKGNLLRHIKL | -1.61
LDCNQCGFPCTQKGNLLRHIKL | 0.275

Sequence | log2 fold change of degron read counts
FSCNVCGAPFTQKGNLLRHIKL | 0.31
FYCDICGAYFTQKGNLLRHIKL | 0.179
FACDQCGATFTQKGNLLRHIKL | -1.33
LDCPICGFCCTQKGNLLRHIKL | 0.405
FNCEQCGACFTQKGNLLRHIKL | -2.27
FKCDQCGARFTQKGNLLRHIKL | -1.62
FECPICGRDFTQKGNLLRHIKL | -0.349
FRCPICGARFTQKGNLLRHIKL | -0.0707
FYCEQCGANFTQKGNLLRHIKL | -1.81
FRCPICGAVFTQKGNLLRHIKL | 0.13
FDCDVCGARFTQKGNLLRHIKL | -1.04
FACPVCGAHFTQKGNLLRHIKL | 0.0313
FDCNQCGHTFTQKGNLLRHIKL | -0.0989
FWCNVCGAYFTQKGNLLRHIKL | 1.37
FACDQCGALFTQKGNLLRHIKL | -1.15
FDCDICGAAFTQKGNLLRHIKL | -1.46
